A word on the EC50: it is the concentration at which the effect is half-maximal. By Kd is commonly meant the constant that tells how readily two partners part at equilibrium. A low value points to tighter binding. The koff is the rate constant with which the complex falls apart. The term kon denotes the rate constant with which the complex forms.

Data on ten molecules can be found in US20250297021A1 (SHANDONG SIMCERE BIOPHARMACEUTICAL CO NO 1, published 2025).

Test [1] concerns the target T1, BCMA expressed endogenously on U266 and H929 cells (UniProt Q02223 1-184, limits assumed).
T1 construct: whole, on cells; The cell line (U266 or H929) is named under assay in each row; also called B cell maturation antigen; CD269
T1 sequence (looked up): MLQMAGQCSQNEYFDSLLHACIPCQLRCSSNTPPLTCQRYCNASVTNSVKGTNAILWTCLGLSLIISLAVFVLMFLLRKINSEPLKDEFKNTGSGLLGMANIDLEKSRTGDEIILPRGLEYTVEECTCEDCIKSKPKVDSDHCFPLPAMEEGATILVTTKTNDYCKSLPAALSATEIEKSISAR
Description: FACS on H929 cells.

A further test has as its target T2, human BCMA-His protein (human, UniProt Q02223 1-54).
T2 construct: Analyte in the SPR assay; also called human BCMA protein; BCMA antigen protein; not shown: His tag
T2 sequence (looked up): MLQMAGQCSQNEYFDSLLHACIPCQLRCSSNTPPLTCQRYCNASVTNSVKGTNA
Description: SPR, antibody captured on Protein A chip, BCMA-His as analyte. The procedure:
A sample buffer and a running buffer were HBS-EP+ (10 mM HEPES, 150 mM NaCl, 3 mM EDTA and 0.05% surfactant P20) (GE Healthcare; BR-1006-69). The flow-through cell was set to 25° C. The sample block was set to 16° C. Both were pretreated with the running buffer. In each cycle, an antibody to be tested was first captured with a Protein A chip, and then a single concentration of BCMA antigen protein was injected. The binding and dissociation processes of the antibody and the antigen protein were recorded, and finally Glycine pH 1.5 (GE Helthcare; BR-1003-54) was used to complete chip regeneration. Binding was measured by injecting different concentrations of BCMA-His in solution for 240 s with a flow rate of 30 μL/min. The concentration started from 200 nM (see the detailed results for the actual concentration in the test) and was diluted at 1:1, making a total of 5 concentrations. The dissociation phase was monitored for up to 600 s and was triggered by switching from sample solution to running buffer. The surface was regenerated by washing with a 10 mM glycine solution (pH 1.5) for 30 s at a flow rate of 30 μL/min. Bulk refractive index difference was corrected by subtracting the response obtained from the goat anti-human Fc surface. Blank injection was also subtracted (=double reference). For calculation of apparent KD and other kinetic parameters, Langmuir 1:1 model was used. The binding rate (Kₐ), dissociation rate (Kdis) and binding affinity (KD) of the chimeric antibodies to human BCMA protein are shown in the table, wherein REGN5459-hlgG1 and HPN217-hHcAb antibodies were used as controls.
The specific method was the same as that in Example 6. The binding rate (Kₐ), dissociation rate (Kdis) and binding affinity (KD) of the humanized antibodies to human BCMA protein are shown Table 38, wherein REGN5459-hlgG1 antibody is used as a control.
A general note: SPR reads the build-up and loss of mass on a sensor chip optically.

Test [2] deals with T1, BCMA expressed endogenously on U266 and …. Description: FACS on U266 cells. The procedure, abridged:
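Cells at 2×10⁶/ml in PBS + 2% FCS incubated with test antibody 1 h at 4° C, washed, then analysed by flow cytometry. MFI derived per sample; EC50 fitted from binding curves.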

B1: BCMA-mAb05 (Fc fusion)
scFv: QGQMQQSDAELVKPGASVQISCKASGYMFTDHTFHWMRQRPEQGLEWIGYIYPRDDNTKYNEKFKGKATLTADKSSSTAYIHLNSLTSEDSAVYFCARAGYYGSSHAMDYWGQGTSVTVSSGGGGSGGGGSGGGGSDIVMTQSHKFMSTSVGDRVSITCKASQDVSTAVAWYQQKPGQSPRLLIYSASSRYTGVPDRFTGSGSGTDFTFTISSVQTEDLAVYYCQQLYSTPWTFGGGTKLEIK[human IgG1 Fc with C220S (EU numbers) not spelt out]
notes: human-mouse chimeric scFv-Fc
Turning to B1, in test [1], the EC50 stood at 9.83 nM and the “Maximum mean fluorescence intensity” value came to 14200. Also, in the test with human BCMA-His protein, the affinity, expressed as Kd, was 0.0186 nM; the koff is 2.39e-05 s⁻¹; the kon is 1.29e+06 M⁻¹ s⁻¹. In test [2], a half-maximal response (EC50) required 10.3 nM and the “Maximum mean fluorescence intensity” value came out at 2370.

B2: BCMA-mAb06 (Fc fusion)
scFv: EVKLLQSGGGLVQPGGSLKLSCAASGIDFSRYWMSWVRRAPGKGLEWIGEINPDSSTINYAPSLKDEFIISRDNAKNTLYLQMSKVRSEDTALYYCAIFYYANYYAMDYWGQGTSVTVSSGGGGSGGGGSGGGGSDIVMTQSQKFMSTSVGDRVSVTCKASQNVDTNVAWYQQKPGQSPKALIYSASYRFSGVPDRFTGSGSGTDFTLTISNVQSEDLAEYFCQQYNGYPFTFASGTKLEIK[human IgG1 Fc with C220S (EU numbers) not spelt out]
notes: human-mouse chimeric scFv-Fc
Consider B2, for which, in test [1], the EC50 came to 4.43 nM and the “Maximum mean fluorescence intensity” value was 21900. In the test with human BCMA-His protein, the Kd came to 0.358 nM, the koff turned out to be 0.000341 s⁻¹ and the kon came out at 952000 M⁻¹ s⁻¹. In addition, in test [2], a half-maximal response (EC50) required 2.83 nM and the “Maximum mean fluorescence intensity” value came out at 2400.

B3: BCMA-01 VL2VH2 (Fc fusion)
scFv: EVQLVESGGGLVQPGGSLRLSCAASGFTFSDFYMYWVRQAPEKRLEWVAYITNGGENTYFPDTVKGRFTISRDNAKNSLYLQMNSLRAEDTAVYYCARQNPFYYYDSNYDYAMDFWGQGTTVTVSSGGGGSGGGGSGGGGSDVVMTQSPLSLPVTLGQPASISCKSSQSLLYSNGKTYLSWLFQRPGQSPKRLIYLVSELDSGVPDRFSGSGSGTDFTLKISRVEAEDVGVYYCVQGTHFPHTFGGGTKVEIK[human IgG1 Fc with C220S (EU numbers) not spelt out]
notes: humanized scFv-Fc
On to B3, for which, in test [1], the 50% effective concentration (EC50) is 5.22 nM and the “Maximum mean fluorescence intensity” value was found to be 9980. For the same molecule, in the test with human BCMA-His protein, the Kd was 0.341 nM, the koff was 0.000638 s⁻¹ and the kon is 1.87e+06 M⁻¹ s⁻¹. Moreover, in test [2], the midpoint of the response, the EC50, lay at 7.84 nM and the “Maximum mean fluorescence intensity” value stood at 3990.

B4: BCMA-07 VL2VH2 (Fc fusion)
scFv: EVQLVQSGAEVKKPGSSVKVSCKASGYTFTDYWTHWVRQAPGQGLEWMGYINHGSGYTKYNQKFKDRVTLTADKSTSTAYMELSSLRSEDTAVYYCARLTGSYYFDYWGQGTTVTVSSGGGGSGGGGSGGGGSDIQMTQSPSSLSASVGDRVTITCSASSSVSYMHWYQQKPGKSPKRWIYDTSKLASGVPSRFSGSGSGTEFTLTISSLQPEDFATYYCQQWSSNPLTFGQGTKLEIK[human IgG1 Fc with C220S (EU numbers) not spelt out]
notes: humanized scFv-Fc
On to B4, for which, in test [1], the EC50 was 207 nM and the “Maximum mean fluorescence intensity” value came out at 30700. Also, in the test with human BCMA-His protein, the Kd worked out at 0.792 nM, the koff was 0.000946 s⁻¹ and the kon stood at 1.19e+06 M⁻¹ s⁻¹. In test [2], the “Maximum mean fluorescence intensity” value was 11000.

B5: BCMA-07 VL3VH1 (Fc fusion)
scFv: EVQLVQSGAEVKKPGSSVKVSCKASGYTFTDYWTHWVRQAPGQGLEWMGYINHGSGYTKYNQKFKDRVTITADKSTSTAYMELSSLRSEDTAVYYCARLTGSYYFDYWGQGTTVTVSSGGGGSGGGGSGGGGSQIQMTQSPSSLSASVGDRVTITCSASSSVSYMHWYQQKPGKSPKRWIYDTSKLASGVPSRFSGSGSGTEFTLTISSLQPEDFATYYCQQWSSNPLTFGQGTKLEIK[human IgG1 Fc with C220S (EU numbers) not spelt out]
notes: humanized scFv-Fc
Consider B5, for which the “Maximum mean fluorescence intensity” value in test [1] was found to be 73100. Further, in the test with human BCMA-His protein, binding was characterised by a dissociation constant (Kd) of 1.62 nM, the koff turned out to be 0.00148 s⁻¹ and the kon is 913000 M⁻¹ s⁻¹. The “Maximum mean fluorescence intensity” value in test [2] amounted to 42700.

B6: BCMA-07 VL4VH2 (Fc fusion)
scFv: EVQLVQSGAEVKKPGSSVKVSCKASGYTFTDYWTHWVRQAPGQGLEWMGYINHGSGYTKYNQKFKDRVTLTADKSTSTAYMELSSLRSEDTAVYYCARLTGSYYFDYWGQGTTVTVSSGGGGSGGGGSGGGGSQIQMTQSPSSLSASVGDRVTITCSASSSVSYMHWYQQKPGTSPKRWIYDTSKLASGVPSRFSGSGSGTEFTLTISSLQPEDFATYYCQQWSSNPLTFGQGTKLEIK[human IgG1 Fc with C220S (EU numbers) not spelt out]
notes: humanized scFv-Fc
In the case of B6, in test [1], the EC50 is 108 nM and the “Maximum mean fluorescence intensity” value amounted to 33500. In the test with human BCMA-His protein, the Kd amounted to 0.508 nM, the koff was 0.000747 s⁻¹ and the kon turned out to be 1.47e+06 M⁻¹ s⁻¹. The “Maximum mean fluorescence intensity” value in test [2] amounted to 11500.

B7: BCMA-06 VL1aVH2 (Fc fusion)
scFv: EVKLVESGGGLVQPGGSLRLSCAASGIDFSRYWMSWVRQAPGKGLEWVAEINPDSSTINYAPSLKDRFTISRDNAKNSLYLQMNSLRAEDTAVYYCAIFYYANYYAMDYWGQGTTVTVSSGGGGSGGGGSGGGGSDIQMTQSPSSVSASVGDRVTITCKASQNVDTNVAWYQQKPGKSPKALIYSASYRFSGVPSRFSGSGSGTDFTLTISSLQPEDFATYYCQQYQGYPFTFGQGTKLEIK[human IgG1 Fc with C220S (EU numbers) not spelt out]
Take B7: in test [1], the midpoint of the response, the EC50, lay at 13.4 nM and the “Maximum mean fluorescence intensity” value was determined as 19800. For the same molecule, in the test with human BCMA-His protein, the affinity, expressed as Kd, was 18.5 nM; the koff came out at 0.00501 s⁻¹; the kon is 271000 M⁻¹ s⁻¹. In test [2], the EC50 was found to be 528 nM and the “Maximum mean fluorescence intensity” value came to 4030.

B8: BCMA-06 VL1aVH3 (Fc fusion)
scFv: EVKLLQSGGGLVQPGGSLRLSCAASGIDFSRYWMSWVRQAPGKGLEWVAEINPDSSTINYAPSLKDRFTISRDNAKNSLYLQMNSLRAEDTAVYYCAIFYYANYYAMDYWGQGTTVTVSSGGGGSGGGGSGGGGSDIQMTQSPSSVSASVGDRVTITCKASQNVDTNVAWYQQKPGKSPKALIYSASYRFSGVPSRFSGSGSGTDFTLTISSLQPEDFATYYCQQYQGYPFTFGQGTKLEIK[human IgG1 Fc with C220S (EU numbers) not spelt out]
Take B8: in test [1], the EC50 came out at 5.93 nM and the “Maximum mean fluorescence intensity” value was 24200. Further, in the test with human BCMA-His protein, binding was characterised by a dissociation constant (Kd) of 8.54 nM, the koff was 0.00326 s⁻¹ and the kon turned out to be 382000 M⁻¹ s⁻¹. In test [2], the “Maximum mean fluorescence intensity” value stood at 4880.

B9: BCMA-06 VL1aVH1 (Fc fusion)
scFv: EVQLVESGGGLVQPGGSLRLSCAASGIDFSRYWMSWVRQAPGKGLEWVAEINPDSSTINYAPSLKDRFTISRDNAKNSLYLQMNSLRAEDTAVYYCAIFYYANYYAMDYWGQGTTVTVSSGGGGSGGGGSGGGGSDIQMTQSPSSVSASVGDRVTITCKASQNVDTNVAWYQQKPGKSPKALIYSASYRFSGVPSRFSGSGSGTDFTLTISSLQPEDFATYYCQQYQGYPFTFGQGTKLEIK[human IgG1 Fc with C220S (EU numbers) not spelt out]
For B9, in test [1], the EC50 worked out at 12 nM and the “Maximum mean fluorescence intensity” value was 17400. In the test with human BCMA-His protein, this molecule gave a Kd of 19.3 nM, a koff of 0.00532 s⁻¹ and a kon of 276000 M⁻¹ s⁻¹. Besides, in test [2], it took 67.3 nM to reach a half-maximal effect (EC50) and the “Maximum mean fluorescence intensity” value was 1710.

B10: BCMA-mAb07 (Fc fusion)
scFv: QVQLQQSGAELAKPGASVKLSCKASGYTFTDYWTHWVKQRPGQGLEWIGYINHGSGYTKYNQKFKDKATLTADKSSSTAYMQVSSLTYEDSAVYYCARLTGSYYFDYWGQGTTLTVSSGGGGSGGGGSGGGGSQIVLTQSPAIMSASPGEKVTMTCSASSSVSYMHWYQQKSGTSPKRWIYDTSKLASGVPPRFSGSGSGTSYSLTISSMEAEDAATYYCQQWSSNPLTFGAGTKLELK[human IgG1 Fc with C220S (EU numbers) not spelt out]
notes: human-mouse chimeric scFv-Fc
Consider B10, for which, in test [1], the EC50 was determined as 9.09 nM and the “Maximum mean fluorescence intensity” value was 21000. In the test with human BCMA-His protein, this molecule returned a Kd of 0.751 nM, a koff of 0.00107 s⁻¹ and a kon of 1.42e+06 M⁻¹ s⁻¹. Besides, in test [2], the EC50 is 8.1 nM and the “Maximum mean fluorescence intensity” value turned out to be 1800.
